Assay results: the supplement of paper PMC3334620
The full ranking holds about 33,000 sequences; the median of “E-score (-0.5 to 0.5)” is about -0.012, and the highest 2% start at about 0.29. This is one part of the list.

The sequences below were run against T1, Ybr033w (UniProt P38073) (assay: PBM E-score (8-mer binding enrichment) (E-score (-0.5 to 0.5)); higher = stronger / more preferred TF binding; most listed sequences are background and not binding sites). Details: protein concentration: 200 nM; construct: GST-full length.
T1 sequence: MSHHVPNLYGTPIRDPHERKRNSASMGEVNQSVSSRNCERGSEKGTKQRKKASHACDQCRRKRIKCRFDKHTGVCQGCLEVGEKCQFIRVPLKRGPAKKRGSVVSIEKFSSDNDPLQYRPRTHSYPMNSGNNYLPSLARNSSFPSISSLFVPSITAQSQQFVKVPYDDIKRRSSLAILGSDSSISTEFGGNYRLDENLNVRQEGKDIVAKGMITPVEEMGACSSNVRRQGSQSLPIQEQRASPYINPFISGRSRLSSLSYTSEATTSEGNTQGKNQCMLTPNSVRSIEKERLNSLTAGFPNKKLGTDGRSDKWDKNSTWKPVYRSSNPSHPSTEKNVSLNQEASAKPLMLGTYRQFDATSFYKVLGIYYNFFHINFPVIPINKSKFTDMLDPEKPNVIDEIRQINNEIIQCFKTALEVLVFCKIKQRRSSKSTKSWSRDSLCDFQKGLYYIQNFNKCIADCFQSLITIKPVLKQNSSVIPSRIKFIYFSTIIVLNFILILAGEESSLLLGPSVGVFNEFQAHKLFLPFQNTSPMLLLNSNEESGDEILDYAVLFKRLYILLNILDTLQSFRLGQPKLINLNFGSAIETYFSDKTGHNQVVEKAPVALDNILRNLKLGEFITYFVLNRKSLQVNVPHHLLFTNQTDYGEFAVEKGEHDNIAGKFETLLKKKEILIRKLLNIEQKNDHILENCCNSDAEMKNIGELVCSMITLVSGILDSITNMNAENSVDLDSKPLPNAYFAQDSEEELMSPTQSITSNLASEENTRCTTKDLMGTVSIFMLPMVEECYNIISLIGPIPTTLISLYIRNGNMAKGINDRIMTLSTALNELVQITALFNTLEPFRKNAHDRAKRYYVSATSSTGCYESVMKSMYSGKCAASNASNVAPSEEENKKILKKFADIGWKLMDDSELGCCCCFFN
Method in brief: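 Masliner-normalised scans of fluorescent anti-GST signal were the basis for scoring. That signal came from GST-tagged yeast transcription factors applied at about 100-200 nM to double-stranded universal all-10-mer Agilent arrays on fresh or once-stripped slides. Each ungapped eight-base word, pooled with its reverse complement, received an E-score from the Universal PBM Analysis Suite.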

Sequence | PBM E-score
AAGTTGGG | -0.0643
AACTCTGC | -0.0262
ATTTCGCG | 0.159
GGAAACTA | 0.04
ATTTCAAC | 0.226
CGAGGCAG | -0.0937
TCATGCGA | 0.0575
CCGCGCAA | -0.0219
CGATTCGA | 0.173
ACACTAGT | 0.0504
AATGCCCC | -0.279
TAACGCTA | 0.0613
AATTGGGA | 0.12
AACCTGTG | -0.0551
ATGGCTTG | -0.165
ATTTACTG | 0.246
AACAATGT | 0.115
AGTAAATA | 0.208
AACGACCG | -0.166
AGATAGCG | -0.131
ATCTCTGC | 0.0163
CGACGCTC | 0.032
AGGTTGTC | -0.114
GTTTGCAA | 0.168
CCTAGTCG | -0.139

Sequence | PBM E-score
CTACGAGC | -0.214
CTGGGCCC | -0.413
CTGCACAC | -0.25
ACTCAAGA | 0.0903
AAGGCCTC | -0.21
ACGCTGTC | -0.168
ATATTTTC | 0.342
TGGTTTAA | 0.255
ATTCCCCC | -0.147
ATCTCGTG | -0.0243
ATCACTCC | -0.0156
ATACGCAG | -0.01
CACGCCCC | -0.196
GTGCAGTA | -0.0549
GAGCTGGA | 0.0531
GCCAACAC | 0.0424
CAATCTTC | 0.236
ACGCTTCT | -0.2
CCCGTACA | -0.255
CGACTGAC | -0.0983
GATAGCTA | -0.114
CAAATATC | 0.269
GTACCAGA | 0.0617
CTCCCTGA | -0.281
ATATTGAG | 0.259

Sequence | PBM E-score
AAGCTAAC | 0.0872
AGACCCAT | -0.132
ACGGAGAA | 0.23
AATTGCCT | 0.0818
CCGTCTTC | -0.07
CACCAAAG | 0.00707
CTACCTGA | -0.0586
ATGAACCC | 0.0926
GGTGCAGA | -0.25
CGGGAGCA | -0.0612
CACTTTGC | 0.00727
GCAGCAAC | 0.0167
TATGTCCA | -0.0788
AGCGCTGG | 0.0307
AATCCATT | 0.231
AACTTCCA | 0.103
AGGCCGAT | -0.157
GATGCAGC | 0.0528
CAATTTCC | 0.195
ATACATCC | 0.164
CAACTAGG | 0.0621
GACCGCCA | -0.199
AACTTGGG | -0.12
AAGCTCGC | -0.0765
CGTGAGTA | 0.0154

Sequence | PBM E-score
ATGATCTC | 0.0117
CAACCGCA | 0.0511
CACCACCC | -0.0879
CGTACTTA | 0.0098
CACTCTGG | 0.00684
AGCCAATA | -0.0344
GAGAAGGC | -0.221
AAATAGTC | 0.0679
GGAATCTA | 0.11
CACTCCCC | -0.0144
CCATGGGG | -0.113
CGAGGTGA | -0.0327
AGTGGCAC | -0.239
CGGTAACC | -0.242
ACCGCTCC | -0.141
ACAGTCAT | 0.00445
AACAGTCA | 0.106
ATGAAGAG | 0.0478
GTTCAAAC | 0.00137
CTTCGAAA | 0.0727
AAGTGAGG | -0.14
ATGACTCA | 0.0306
CAAGAATA | 0.24
ATCTACGC | 0.0459
TAAAAGAA | 0.269

Sequence | PBM E-score
TGGTAGAA | 0.0488
CAGGCGGG | -0.192
CCCTACCG | -0.265
CATACTGC | 0.0124
TGCACACA | 0.0112
CTTCGATC | 0.0364
CATGGCCG | -0.0287
CACAACGG | -0.172
GATCCGTA | -0.0738
CCTTGAGC | -0.0532
ATGGAAGG | -0.163
AAGCCGTC | -0.0475
GAACCTGC | 0.0378
AGATTTAC | 0.203
ACTGTCAT | -0.033
AAGAACAA | 0.238
GGAGAGAA | 0.0966
AAACAGGC | -0.216
ATGGTACC | -0.177
AGAATGTG | -0.0232
CCTGCCCG | -0.354
GTGAGATA | 0.0437
CTTTACCA | 0.0707
CCGTGCCG | -0.149
CCACGAAG | -0.0653

Sequence | PBM E-score
ATCCGAGC | -0.148
CACGCCAG | -0.297
AGACTAAA | -0.0471
CGTACAAA | 0.0238
CAGAAGAG | -0.202
ACTATCTA | 0.197
ATTCCGTG | 0.16
GAGAAGAC | -0.0277
AGGAAGAT | 0.323
AAATTTGT | 0.303
CCGTCGCG | -0.0599
GGTGTTTA | 0.00691
GAGCAAGA | -0.0424
CAGCCTCG | -0.177
GTTCGGGA | 0.0767
CCGAGAGG | -0.271
AGGAGTCG | -0.167
GCGACTGA | -0.0799
GTGTTAGA | 0.0758
AAATCTAG | 0.132
ATGCCAAC | 0.0348
CAACGATA | 0.187
CAGCACAG | 0.152
AGATCCGC | -0.107
TCAGGCGA | -0.157

Sequence | PBM E-score
ATTAGTGC | 0.199
GCTGGCAA | 0.108
GAACAATA | 0.412
AATAGGGA | 0.0137
CACAGCGG | -0.122
CCATGCCC | -0.28
CTCACGCA | 0.233
CCTGGATC | -0.0578
CTGCGCAG | -0.171
ATCTTCTC | 0.0573
CGAACCTA | -0.0369
ACCCGCAA | -0.137
ACTTGTTA | 0.106
ATTATAAC | 0.0262
CTGGGCCA | -0.304
ATTCGATC | 0.0598
ACTGAAGT | 0.175
GACAGGCA | -0.0644
GTGGGTAA | -0.0878
CACGCGCC | -0.048
CGGTGTAA | -0.044
AAAGTATT | 0.22
